Results as given in PubChem BioAssay (NCI).
Several values for one entry are separate records, joined by “and”; a condition that tells them apart may be missing. Equal values may be shown once.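 Protocol summary: plate cells (96-well), add compound at 5 concentrations, incubate 48 h, interpolate endpoints linearly. Here, GI50 denotes the concentration required for 50% inhibition of growth. TGI marks complete inhibition of growth.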

system: NCI-H322M lung; experiment: NCI anticancer screen, dose series, 48 h

Compound	TGI	GI50
CCN(C(=S)N[C@@H](Cc1ccccc1)C(=O)N[C@@H](CC(C)C)C(=O)OC)c1ccccc1	> 100 µM	
N#CC(C#N)=CNC(=S)c1ccncc1	> 100 µM	
Cc1cc(Nc2nc(SCc3ccc(C(=O)Nc4ccc(F)cc4N)cc3)nn3cccc23)n[nH]1	> 100 µM	1.01 µM
CCCn1c(CN(Cc2nc3ccccc3n2CCC)Cc2nc3ccccc3n2CCC)nc2ccccc21	> 70.4 µM	
C/C(CC1C2CCCC1C2)=N\NC(N)=O (configuration not stated)	> 100 µM	
O=C(NCCN1CCOCC1)c1ccc2cc(C(=O)N3CC(CCl)c4ccc([N+](=O)[O-])cc43)[nH]c2c1 (configuration not stated)	> 100 µM	
O=C(NCCCN(CCCCN(CCCNC(=O)C(F)(F)F)Cc1ccccc1)Cc1ccccc1)C(F)(F)F	29.1 µM	
Cc1cc2[nH]c3[nH]c(=O)[nH]c(=O)c3c2cc1C	> 100 µM	
Cc1c2c(n(CCc3ccc(Cl)cc3)c1C)NN=C(C#N)S2(=O)=O	> 100 µM	
O=C1C(Cl)=C(Nc2ccccc2)C(=O)c2ccccc21	46.5 µM	17.8 µM
COc1nc(C#CCC(C)O)nc(OC)n1 (configuration not stated)	> 100 µM	
CCOc1cc(C2CC(c3ccc(NS(=O)(=O)c4cc([N+](=O)[O-])ccc4C)cc3)=NN2C(=O)c2ccccc2)ccc1O (configuration not stated)	> 100 µM	
Cc1ccc(S(=O)(=O)N/N=C(\c2nc3ccc([N+](=O)[O-])cc3[nH]c2=O)C(O)c2ccccc2Cl)cc1 (configuration not stated)	> 100 µM	
O=C(NC12CC3CC(CC(C3)C1)C2)C(=O)c1c[nH]c2ccc(Cl)cc12	> 100 µM	
CCOC(=O)C(=O)Nc1ccccc1C(F)(F)F	> 100 µM	
CC1=C(C(=O)Nc2ccccc2C)C(/C=C/c2ccccc2)C(C(=O)Nc2ccccc2C)=C(C)N1	> 100 µM	
CCCCC1c2c([nH]c3ccccc23)C2C(=O)N(c3ccc(OC)cc3)C(=O)C2C1CCC (configuration not stated)	> 10 µM	
Cc1csc(-c2cn(C)c3c2C(=O)C(N)=CC3=O)n1	> 100 µM	
Cc1nnc(N/N=C(/C(=O)C(C#N)c2ccccc2)C(C#N)c2ccccc2)n1N (configuration not stated)	28.7 µM	
COc1ccc(CC(O)CN2CCOCC2)cc1 (configuration not stated)	> 100 µM	
CC(O)C1CC1(CO)CNc1cc(Cl)nc(N)n1 (configuration not stated)	> 100 µM	
Nc1c(-c2cccc3ccccc23)c2ccc([N+](=O)[O-])cc2c(=O)n1-c1nc2ccccc2s1	> 74.9 µM	
O=C1CN2C(c3ccccc3)=NN(c3ccc([N+](=O)[O-])cc3)C2(c2ccccc2)c2cc(Cl)ccc2N1CC1CC1 (configuration not stated)	> 100 µM	

Compound	TGI	GI50
CNC(=O)c1cc2c(Oc3ccc(NC(=O)C4(C(=O)Nc5ccc(F)cc5)CC4)cc3)ccnc2cc1OC	> 100 µM	4.69 µM
C=C(CN1CCc2ccccc2C1)c1ccc(C(=O)Nc2ccccc2N)cc1	14.9 µM	2.71 µM
CCCCCCCCCCCC[n+]1ccccc1 (tested in a mixture with another compound)	11 µM	2.47 µM
COc1ccc(-c2nnc(N3CCN(C(=O)CN4CCN(c5ccc(OC)cc5)CC4)CC3)nc2-c2ccc(OC)cc2)cc1	41.5 µM	13.8 µM
C=CC[C@]12C[C@@H](C(=O)OC)N(C(=O)OC)[C@H]1N(S(=O)(=O)c1ccccc1)c1ccccc12	> 100 µM	
C=C[C@@H]1C(CO)=CCC2[C@H]1CCC1C(C)(C)C(=O)CC[C@]21C (some centres not stated)	> 100 µM	
COC(=O)/C(C#N)=C1\CCC(C(=O)OC)N1C (configuration not stated)	> 100 µM	
C=C1CC2(OC1=O)C(=O)N(CCCN1C(=O)C3(CC(=C)C(=O)O3)c3ccccc31)c1ccccc12 (configuration not stated)	23.2 µM	11.2 µM
CC1(C)CC[C@H](C2=CC(=O)c3c(O)ccc(O)c3C2=O)O1	18.2 µM and 9.4 µM and 4.68 µM	8.53 µM and 3.03 µM and 2.27 µM
CO[C@]12CC(=O)C3(C(C[C@H]4CC5CC=C6C[C@@H](OC(C)=O)CC[C@]6(OC(C)=O)C5C[C@@]43C)C1)C1C[C@H]3[C@@H]4CC=C5C[C@@H](OC(C)=O)CC[C@]5(OC(C)=O)[C@H]4CC[C@]3(C)C12 (some centres not stated)	> 100 µM	
CC(C)COP(=O)(OCC(C)C)C(NS(=O)(=O)c1ccccc1)(C(F)(F)F)C(F)(F)F	17.2 µM	
CCOC(=O)c1c(-c2ccc(OC)cc2)c(C#N)c(=S)n(C2OC(COC(C)=O)C(OC(C)=O)C(OC(C)=O)C2OC(C)=O)c1C (configuration not stated)	> 100 µM	
CC/C(=N\NS(=O)(=O)c1ccccc1)c1ccccc1	> 100 µM	
CC1CCCc2c1nn(C(=O)/C=C(\N)c1ccccc1)c2N (configuration not stated)	> 100 µM	10.8 µM
Cl[Si]1(Cl)Oc2ccccc2O[Si](Cl)(Cl)Oc2ccccc2O1	> 100 µM	
CSc1c(C)c(C)nn1-c1ccccc1	> 100 µM	
CC(CC(=O)Nc1ccc(NC(=O)CC(C)N=NC(N)=S)cc1)N=NC(N)=S (configuration not stated)	> 100 µM	
C[C@H](Cn1ncnn1)Nc1ncc2cc(Oc3ccc(F)cc3F)c(=O)n(C)c2n1	> 25 µM	> 25 µM
O=C/C(=C(/Cl)c1ccc(O)cc1)c1ccccc1	97.5 µM	
C=CCOC(=O)CC[N+]1=CCC(c2ccccc2)(c2ccccc2)O1	> 100 µM	
C[C@H]1[C@H](C)CC[C@]2(C(=O)NCCNCCN)CC[C@]3(C)C(=CC[C@@H]4[C@@]5(C)CCC(=O)C(C)(C)[C@@H]5CC[C@]43C)[C@H]12	2.97 µM	1.61 µM
COc1ccc(Nc2nc3ccccc3nc2-c2cccs2)cc1	> 100 µM	
Cc1c(C(=O)CSc2nc3ccccc3c(=O)n2-c2ccccc2)c(=O)n(-c2ccccc2)n1C	> 100 µM	

Compound	TGI	GI50
O=c1c2ccccc2nc2[nH][nH]c(=S)n12	> 100 µM	
COc1ccc(CC(C)C(C)Cc2ccc(OC)c(OC)c2)cc1OC (configuration not stated)	> 1400 µM	> 1400 µM
O=S1(=O)NCCCN1CCNc1nccc(-c2c(-c3cccc(O)c3)nc3sccn23)n1	> 100 µM	18.1 µM
Clc1ccc(-c2nn3c(-c4ccncc4)nnc3s2)cc1	> 100 µM	
O=C(c1ccc2ccccc2c1)c1c(C(F)(F)F)n([O-])c2ccc(Cl)cc2[n+]1=O	3.42 µM	1.85 µM
CC(=O)[O-].CC(=O)[O-].CC(=O)[O-].CC(=O)[O-].[Mo+2].[Mo+2]	> 100 µM	> 100 µM
CCN(CC)CCOc1ccc(N2C(=O)c3cc(OC)c(OC)cc3C2=O)cc1	> 100 µM	
CCOC(=O)/C=C(\C)c1ccc(C)cc1C	> 100 µM	
O=c1ccc2cc3ccc4cccc5ccc(c2o1)c3c45	> 100 µM	
C=CCO/N=C/c1cc(NC(=S)c2ccoc2C)ccc1Cl	32.5 µM	
O=C(c1cc2ccccc2cc1O)N1CCCCC1	> 100 µM	
COc1ccccc1-c1cc(=O)c2ccc(C)nc2[nH]1	> 100 µM	
O=C(O)CCC(NC(=S)S)C(=O)O.[Na+].[Zn+2] (configuration not stated)	> 50 µM	> 50 µM
O=C(/C=C/c1ccccc1)CC(c1ccccc1)N1CCOCC1 (configuration not stated)	30.8 µM	15.6 µM
OB1OCc2cc(/C=C/c3cccc(C(F)(F)F)c3)ccc21	> 100 µM	3.11 µM
Cc1cc(=O)c2c([nH]1)NS(=O)(=O)NC2=O	> 100 µM	
CC(C)c1ccc(C(=O)Nc2sc3c(CN(C)C)c(O)ccc3c2C(N)=O)cc1	> 100 µM	2.75 µM
O=C(N=Nc1cc(Cl)ccc1Cl)NNc1cc(Cl)ccc1Cl	96.1 µM	
C/C=C/C=C/c1nc(C#N)c(N)o1	> 100 µM	
CN(C)C(=S)S	> 100 µM	
CC1(C)N=C(C(N)=O)c2ncn(CCCO)c2N1	> 100 µM	
CC(=O)OC1COC(n2c(=S)n(-c3ccccc3)c(=O)c3cc(Br)ccc32)C(OC(C)=O)C1OC(C)=O (configuration not stated)	> 100 µM	
CC1CC[C@@]2(OC1)OC1C[C@H]3[C@@H]4CC[C@H]5CC(OC6OC(CO)C(OC7OC(CO)C(O)C(O)C7OC7OC(CO)C(O)C(O)C7O)C(O)C6O)CCC5(C)[C@H]4CCC3(C)C1[C@@H]2C (some centres not stated)	6.02 µM	

Compound	TGI	GI50
COc1cccc(/C=C2\CCC(C)(CN(C)C)C2=O)c1 (configuration not stated)	> 100 µM	
CC(=O)[CH-]C(C)=O.[CH2-]C.[CH2-]C.[Tl+3]	> 100 µM	> 100 µM
CCOC(=O)NC(=S)NN(C)C1=NCC(C)(C)S1	> 100 µM	
Cc1c(S(=O)(=O)/N=C(\N)Nc2ccc(Cl)cc2)sc2ccc(Cl)cc12	34.9 µM	
CCN(CC)CCNC(=O)c1c(C)[nH]c(/C=C2\C(=O)Nc3ccc(F)cc32)c1C	> 10 µM and 9.3 µM and 20.5 µM	0.877 µM and 2.54 µM and 5.46 µM
O=C1c2cccnc2-c2nc(-c3ccncc3)cc3c2c1nc1ccccc13	29.6 µM	15.6 µM
CCOC(=O)c1ccc(N[C@@H]2c3cc4c(cc3C(C3=CC(=O)C(=O)C(OC)=C3)[C@H]3C(=O)OCC32)OCO4)cc1 (some centres not stated)	> 90.6 µM	
Cc1ccc2c(c1)Sc1ccc(N=NN(C)C)cc1N2C	> 100 µM	
O=c1oc(-c2ccc(O)c(O)c2)cc2cccc(O)c12	43.2 µM	
NC(N)=NS(=O)(=O)c1ccc(NC(=O)c2cccc3c(Nc4ccc(S(N)(=O)=O)cc4)c4ccccc4nc23)cc1	> 100 µM	
Cn1c2ccccc2c2c(=O)c3ccccc3[nH]c21	> 100 µM	24.6 µM
c1ccc(Cn2cnc3ccc(-c4nc(-c5ccc6c(c5)ncn6C5CCCCC5)cn5ccnc45)cc32)cc1	> 100 µM	3.05 µM
CN(C)Cc1cc(C(=O)/C=C/c2ccc(O)cc2)cc(CN(C)C)c1O	> 100 µM	
Cc1ncc(C(=O)Nc2ccc(CN3CCN(C)CC3)c(C(F)(F)F)c2)cc1C#Cc1cnc(NC2CC2)c2ncccc12	1.53 µM	0.762 µM
NC(=O)/C=C/C(=O)O	> 5000 µM	
CC1(C)[C@@H]2CC[C@@]1(C)[C@@H]1O[C@@H](O[C@@H](CN)c3cc(Cl)c(OCc4ccccc4)c(OCc4ccccc4)c3)C[C@H]21	0.312 µM	
NC(=O)C1(N2CCCCC2)CCN(CCCC(=O)c2ccc(F)cc2)CC1	> 100 µM	5.54 µM
CCC1=C[C@@H]2CN(C1)Cc1c([nH]c3ccccc13)[C@@](C(=O)OC)(c1cc3c(cc1OC)N(C)[C@H]1[C@@](O)(C(=O)OC)[C@H](OC(C)=O)[C@]4(CC)[C@@H]5C[C@@H]5CN5CC[C@]31[C@@H]54)C2	12.1 µM	< 0.005 µM
CC(=O)N[C@H](C(=O)N[C@@H](CCCNC(=N)N)C(=O)N[C@@H](CCCCN)C(=O)N[C@@H](CCCNC(=N)N)C(=O)N[C@]1(C)CCCCCC/C=C\CCC[C@@](C)(C(=O)N[C@@H](CCCNC(=N)N)C(=O)N[C@@H](CCC(=O)O)C(=O)N[C@@H](CC(C)C)C(=O)N[C@H](C(=O)N[C@@H](CCC(=O)O)C(N)=O)C(C)C)NC(=O)[C@H](CCC(N)=O)NC(=O)[C@H](CC(C)C)NC(=O)[C@H](CC(C)C)NC(=O)[C@H](CCCNC(=N)N)NC(=O)[C@H](CCCNC(=N)N)NC(=O)[C@H](CC(C)C)NC1=O)C(C)C	26.5 µM	3.58 µM
COc1cc(C2CC(C)(Nc3ccccc3)Oc3cc4c(cc32)OCO4)cc(OC)c1OC (configuration not stated)	> 100 µM	
